Among the data in PubChem BioAssay (NCI) are GI50 and TGI values, retold here.

Structures are written as SMILES.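 Dose response: 5 concentrations. Exposure: 48 h. Format: 96-well plates. Endpoint: linear interpolation; highest concentration if not reached. GI50 is the concentration that inhibits growth by half. The concentration for full growth arrest is given as TGI.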

In the experiment the test system is NCI-H322M lung. The experiment can be described thus: NCI-60 cell line screen, 48 h.

`CCO/C=N/C1=C(C#N)C(c2ccc(OC)cc2)c2sc3c(CC)cccc3c2O1` (configuration not stated): the GI50 was 5.35 µM and the TGI turned out to be 18.5 µM.
